Measurements: the supplement of paper PMC10126150
Sequences with one replicate were seen in a single cluster, so their values are uncertain.

Test system: ATP
Assay: switch fluorescence ratio, 500 uM ATP over buffer (Cy3 cluster intensity, sum of 5 cycles each) (fold (ratio)); higher = stronger signal-on switching upon ATP binding; sequences stand for … in TCGTCGGCAGCGTCAGATGTGTATAAGAGACAGTTTTTTTTTTTTTTTTTTTTTTTTT…TC
Conditions: aptamer strand: ATP DNA aptamer (quencher-CACCTGGGGGAGTATTGCGGAGGAAGG + anchor), 100 nM annealed; ATP concentration: 500 uM; one replicate
Outline: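 Clusters carrying Cy3-labelled switching strands on a modified Illumina MiSeq flow-cell were annealed to 100 nM quencher-labelled ATP aptamer and imaged in selection buffer. They were imaged again after 15 min with 500 uM ATP at 22 °C, over five buffer/ATP cycles with NaOH stripping and re-annealing in between. For each cluster, the fluorescence ratio is the summed Cy3 intensity of the target cycles divided by that of the buffer cycles, averaged per switch-domain sequence. Clusters outside 100-1000 RFU were left out.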
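Further: ATP exposure 15 min at 22 °C before imaging.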

ACTTCCATTC
switch fluorescence ratio: 1.16

ACTGGATTTA
switch fluorescence ratio: 0.994

TCATTATCGG
switch fluorescence ratio: 0.986

ATTCGTGTC
switch fluorescence ratio: 0.97

AGAAGAGGTC
switch fluorescence ratio: 0.997

CAGAGTATGG
switch fluorescence ratio: 1.02

TTCCCATCGT
switch fluorescence ratio: 0.969

ACAAAAAGTC
switch fluorescence ratio: 1.01

AAACTGGGAA
switch fluorescence ratio: 0.992

GAACTCAGGT
switch fluorescence ratio: 0.951

AAGCAGATTA
switch fluorescence ratio: 1.02

CCAGCCTGAA
switch fluorescence ratio: 1

ATCCCCTTTT
switch fluorescence ratio: 0.981

CGGGATACA
switch fluorescence ratio: 1.07

TCGGTTTCCC
switch fluorescence ratio: 1.03

TCGGTTGGGG
switch fluorescence ratio: 1

GTGGAAAGTT
switch fluorescence ratio: 0.998

GGCTTAACCG
switch fluorescence ratio: 1.05

AGTGTGGAGG
switch fluorescence ratio: 1.02

GGCCAAGCTG
switch fluorescence ratio: 0.994

GGTCTTGCGG
switch fluorescence ratio: 0.957

CGAAATGGAA
switch fluorescence ratio: 1.04

AATTCCTTAG
switch fluorescence ratio: 1.02

TCTTACTCTC
switch fluorescence ratio: 1.12

CTAAGTGTTA
switch fluorescence ratio: 0.986

ATATTTGGCA
switch fluorescence ratio: 0.983

GACAGGGTGA
switch fluorescence ratio: 1.09

TTCCGCCCGC
switch fluorescence ratio: 1.73

ATATTCCCCG
switch fluorescence ratio: 1.34

GGGGCATAGA
switch fluorescence ratio: 1.02

AACACCGGTA
switch fluorescence ratio: 0.992

GATGCGAGGA
switch fluorescence ratio: 0.917

GGAGAATGTT
switch fluorescence ratio: 0.995

GGGCCCTTGT
switch fluorescence ratio: 1.03

TAACGCTATA
switch fluorescence ratio: 1.73

ACTACGAAGG
switch fluorescence ratio: 1.03

TGAGTTACA
switch fluorescence ratio: 1.05

ACAACGCCGG
switch fluorescence ratio: 1.1

ACTAAGAGCT
switch fluorescence ratio: 1.04

GGTGGGGGA
switch fluorescence ratio: 1.04

CGATCACGTG
switch fluorescence ratio: 1.02

AGAACAATGG
switch fluorescence ratio: 1.03

GTCGCCGCAT
switch fluorescence ratio: 1.02

ATTAGTCTCG
switch fluorescence ratio: 1.05

AAATTAATGC
switch fluorescence ratio: 1.05

CTTGGGCTTA
switch fluorescence ratio: 1.01

TTGACATTTA
switch fluorescence ratio: 1.08

CTAATAGAGG
switch fluorescence ratio: 1

TAACGCCGT
switch fluorescence ratio: 0.989

GAAGCGCCTT
switch fluorescence ratio: 1.02

GCCAGGAAA
switch fluorescence ratio: 0.945

CGTATGCCCT
switch fluorescence ratio: 0.977

TAAGAGCTCA
switch fluorescence ratio: 0.991

CGGTCTTGTA
switch fluorescence ratio: 1

AGCAGAACCG
switch fluorescence ratio: 1.05

CAGAAGCCCG
switch fluorescence ratio: 0.998

GTAAATAGGT
switch fluorescence ratio: 1

GGCCCAGAG
switch fluorescence ratio: 1.07

AAAGCGCTAG
switch fluorescence ratio: 0.987

CGAAGCAACG
switch fluorescence ratio: 2.11

TTAAGAGCTT
switch fluorescence ratio: 1.01

ATCCTCGAAA
switch fluorescence ratio: 1.67

CGGTGTCTGT
switch fluorescence ratio: 0.948

ATTCTGGAG
switch fluorescence ratio: 1.08

TCTTGTAAAT
switch fluorescence ratio: 1.63

ATAGTCATGA
switch fluorescence ratio: 0.973

ACTGTTCCTC
switch fluorescence ratio: 1.19

GCCAAGACAT
switch fluorescence ratio: 0.998

CTCCCACTT
switch fluorescence ratio: 1.1

TGGTGTCATT
switch fluorescence ratio: 0.965

AGGCCGGCTA
switch fluorescence ratio: 1.03

AAAAGACCTT
switch fluorescence ratio: 1.27

TTGACGGTTG
switch fluorescence ratio: 1.03

ATCTCTAACG
switch fluorescence ratio: 0.967

TATCGCTATT
switch fluorescence ratio: 0.979

TAGACGAAGG
switch fluorescence ratio: 1.01

GTGCAGTTTT
switch fluorescence ratio: 1.01

ATCGTATATT
switch fluorescence ratio: 0.995

CTCAGTTGTA
switch fluorescence ratio: 1.02

TGGATTTTC
switch fluorescence ratio: 0.977

CTGCTTAACG
switch fluorescence ratio: 1.03

TATGACGATG
switch fluorescence ratio: 0.982

ATACTTCTGT
switch fluorescence ratio: 1.05

TGGCGAGCAA
switch fluorescence ratio: 2.06

TTTCCATTCA
switch fluorescence ratio: 1

TAAGGAGAAG
switch fluorescence ratio: 1.02

ACTTACAGTT
switch fluorescence ratio: 1.14

TGGCAGGAG
switch fluorescence ratio: 0.971

AGAAGCACGC
switch fluorescence ratio: 1.17

TATACGTGG
switch fluorescence ratio: 0.942

TGGCTCTACC
switch fluorescence ratio: 1.03

TAACTTGGTG
switch fluorescence ratio: 1.03

CGTCCTTTGG
switch fluorescence ratio: 0.987

TTAGTGTGC
switch fluorescence ratio: 0.982

CTAGGTAGCG
switch fluorescence ratio: 0.989

CCTGGGCGTA
switch fluorescence ratio: 1.07

AGAGACCTGC
switch fluorescence ratio: 0.991

AAGTCGTTGG
switch fluorescence ratio: 0.985

CAGGCTGGCT
switch fluorescence ratio: 1.08

GCCATAAGAG
switch fluorescence ratio: 0.987

TGGCGTCGGC
switch fluorescence ratio: 1

AAGAGGCGTT
switch fluorescence ratio: 1.02

ACAGGGTATT
switch fluorescence ratio: 1.03

GGATTCACCT
switch fluorescence ratio: 1.1

TCGAATGAGG
switch fluorescence ratio: 1.03

CATAGTGTCC
switch fluorescence ratio: 1

AACTCGGGAA
switch fluorescence ratio: 1.13

CAGACAGAAT
switch fluorescence ratio: 1.03

ACGGTCGGCG
switch fluorescence ratio: 1.03

AATTCATGGA
switch fluorescence ratio: 0.998

CAGTGCAGGG
switch fluorescence ratio: 0.993

TTCGTATTAA
switch fluorescence ratio: 0.995

AGGAAAGGGA
switch fluorescence ratio: 0.99

CGCGTTCATG
switch fluorescence ratio: 1.02

CTTACTATTA
switch fluorescence ratio: 1.02

GCGGTCAGTA
switch fluorescence ratio: 0.991

CTTGCACCTT
switch fluorescence ratio: 1.12

AACTCTTCGA
switch fluorescence ratio: 1.02

GCTCACGGCA
switch fluorescence ratio: 1.03

GATAGCAGTC
switch fluorescence ratio: 1.28

AACCTCTACG
switch fluorescence ratio: 1.45

AAGCCAAGTG
switch fluorescence ratio: 1.05

AATTGCTAGG
switch fluorescence ratio: 1.01

GACGGGTGCT
switch fluorescence ratio: 1.04

GGAATCGGGT
switch fluorescence ratio: 0.992

ACGAACTGCT
switch fluorescence ratio: 1.17

ACGGCTTAA
switch fluorescence ratio: 1

CGACTGCGGT
switch fluorescence ratio: 1.23

TAGGAGGGCA
switch fluorescence ratio: 0.961

GGTGCGGTTA
switch fluorescence ratio: 0.961

CGCGGCAACG
switch fluorescence ratio: 0.994

GGCGGTGCAG
switch fluorescence ratio: 0.984

CATGAGCG
switch fluorescence ratio: 1.03

CGGATTTGTA
switch fluorescence ratio: 0.97

GTTTCAACAG
switch fluorescence ratio: 1.04

GTACAAAGTT
switch fluorescence ratio: 1.03

CTCCTGTTGG
switch fluorescence ratio: 0.995

CTCGTTGATG
switch fluorescence ratio: 1.04

GACACGGAGT
switch fluorescence ratio: 1.02

TCGGGTCTCC
switch fluorescence ratio: 0.979

GCCCGAGTCT
switch fluorescence ratio: 0.983

GCCATTAGGC
switch fluorescence ratio: 0.968

CTTTCTGGTG
switch fluorescence ratio: 1.15

CCATCTCAGA
switch fluorescence ratio: 0.994

ATACGCCCGG
switch fluorescence ratio: 1.12

CTTTTAACCC
switch fluorescence ratio: 1.06

ATCAATTGAC
switch fluorescence ratio: 0.989

TTGAGCGGA
switch fluorescence ratio: 0.978

TTATTAGCGG
switch fluorescence ratio: 0.987

GATTGCATG
switch fluorescence ratio: 1.02

TAAGTTCC
switch fluorescence ratio: 1.92

ATCGTATGAA
switch fluorescence ratio: 1.01

TGGCCGATAG
switch fluorescence ratio: 1.02

GGGGATAATA
switch fluorescence ratio: 1.01

TGAAGCCACG
switch fluorescence ratio: 1.05

ACGAAGGTAC
switch fluorescence ratio: 1.41

GGTTAGTTAA
switch fluorescence ratio: 1.01
